Results as given in the antibiotic and cytotoxicity screens of Wong et al. (2023).
The other results are listed elsewhere or left out.

Experiments:
HSkMC = human skeletal muscle cells; assay: cytotoxicity call (relative viability < 0.9); details: 10 µM
HepG2 = assay: cytotoxicity call (relative viability < 0.9); details: 10 µM
S. aureus RN4220 = assay: growth inhibition call (relative growth <= 0.2); details: 50 µM

| SMILES | cytotoxicity call (HSkMC) | cytotoxicity call (HepG2) | growth inhibition call (S. aureus RN4220) |
| --- | --- | --- | --- |
| CC(=O)OCC(=O)C1(O)CCC2C3CCC4=CC(=O)C=CC4(C)C3(Cl)C(Cl)CC21C (configuration not stated) | inactive | inactive | inactive |
| O=C(C[C@H]1C[C@@H]2c3cc(NC(=O)Nc4ccccc4)ccc3O[C@@H]2[C@@H](CO)O1)NCCN1CCCCC1 | inactive | inactive | inactive |
| CCNC(=O)C[C@@H]1CC[C@@H](NC(=O)C2CCOCC2)[C@H](CO)O1 | inactive | inactive | inactive |
| C=C1[C@@H]2[C@H]3OC(=O)[C@@H](C)[C@@H]3[C@@H](O[C@@H]3O[C@H](CO)[C@@H](O)[C@H](O)[C@H]3O)CC(=C)[C@@H]2C[C@@H]1O | inactive | inactive | inactive |
| Cc1noc(C)c1NC(=O)N(C)C[C@@H]1Oc2ccc(NC(=O)NC(C)C)cc2C(=O)N([C@H](C)CO)C[C@@H]1C | inactive | inactive | inactive |
| Cc1noc(C)c1S(=O)(=O)Nc1ccc2c(c1)C(=O)N([C@H](C)CO)C[C@H](C)[C@H](CN(C)C(=O)Nc1ccc(C(F)(F)F)cc1)OCCCC[C@H](C)O2 | active | inactive | inactive |
| Cc1noc(C)c1NC(=O)Nc1cccc2c1O[C@@H](CN(C)Cc1ccc(C(=O)Nc3ccccc3N)cc1)[C@@H](C)CN([C@@H](C)CO)C2=O | inactive | inactive | inactive |
| COc1cccc(NC(=O)N(C)C[C@H]2Oc3cc(C#Cc4ccncc4)ccc3S(=O)(=O)N([C@@H](C)CO)C[C@@H]2C)c1 | active | active | inactive |
| C[C@@H]1CN([C@@H](C)CO)C(=O)Cc2cc(NC(=O)Cc3cn(C)c4ccccc34)ccc2O[C@H]1CN(C)Cc1ccc(C(=O)Nc2ccccc2N)cc1 | inactive | inactive | inactive |
